61 compounds from PubChem BioAssay AID2451 (National Center for Advancing Translational Sciences (NCATS), 2010) can be followed below.

The campaign covered roughly 290,000 compounds. About 2,100 (0.72%) were called active. Roughly 4% stayed inconclusive and do not appear here. Calls follow the shape of the dose curve; as a rule, active = well fitted inhibition curve with a large enough effect; inconclusive = small, poorly fitted or top-dose-only effect, or effect the other way; inactive = flat fitted curve, though single readings scatter. This is a selection; strong and weak results do not stand in their true shares.
% is scaled to controls: 0 for no effect and ±100 for the full control effect; potency is read from the fitted curve at half-maximal effect.

UniProt A8B2U2, sequence (A8B2U2 whole entry, looked up): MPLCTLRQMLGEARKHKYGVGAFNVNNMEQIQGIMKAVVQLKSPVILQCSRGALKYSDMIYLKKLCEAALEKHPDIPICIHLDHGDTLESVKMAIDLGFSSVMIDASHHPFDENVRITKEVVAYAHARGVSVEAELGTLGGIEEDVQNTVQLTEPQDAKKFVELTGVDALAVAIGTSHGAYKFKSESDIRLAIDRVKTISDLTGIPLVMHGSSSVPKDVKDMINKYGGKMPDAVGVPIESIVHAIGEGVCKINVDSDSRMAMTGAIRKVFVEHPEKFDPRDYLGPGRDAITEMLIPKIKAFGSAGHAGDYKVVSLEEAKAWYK

The assay concerns the target Fructose-bisphosphate aldolase (Giardia intestinalis (strain ATCC 50803 / WB clone C6)) (UniProt A8B2U2). The assay is described as follows: qHTS Assay for Inhibitors of Fructose-1,6-bisphosphate Aldolase from Giardia Lamblia. Also: nearly all actives have a fitted effect of over 55% in size. As to conditions: purified Giardia FBPA; series mostly up to 59.6 µM; activity, negative = inhibition: at the top concentration. The text has this:
Assay Provider: Osnat Herzberg, University of Maryland
The objective of this project is to obtain compounds that inhibit Giardia lamblia growth. G. lamblia is a human pathogen which afflicts impoverished nations; it is the most common cause of outbreaks of diarrhea in the United States. During the course of our study of potential drug targets in Giardia, we have identified the Class II (Zn2+ functions in electrophilic catalysis) fructose-1,6-bisphosphate aldolase (FBPA) as an excellent candidate for drug targeting. FBPA is a key glycolytic pathway enzyme, essential for G. lamblia survival. The human FBPA belongs to the Class I aldolases, which have a different substrate binding site structure and a radically different catalytic mechanism (employing a lysine-Schiff base intermediate). Therefore, affinity-based or mechanism-based inhibitors of the Giardia FBPA are expected not to interfere with the catalytic function of the human FBPA.
A glyceraldehyde-3-phosphate dehydrogenase/triose phosphate isomerase/NAD/arsenate coupled assay was adapted to the 1536-well HTP format for use in the primary screen. This was done by coupling it to a diaphorase/resazurin/resorufin reaction that can be monitored by fluorescence (excitation, 544 nm; emission, 590 nm). Compounds identified in this screen will be further evaluated by coupling the glycerol-3-phosphate/triose phosphate isomerase/NADH assay to a phenazine methosulfate/tetranitroblue tetrazolium color reaction. False positives due to the dehydrogenases and diaphorase inhibition will be eliminated, and selectivity assay will triage inhibitors of mammalian triose phosphate isomerase and the Class I FBPA. G. lamblia FBPA inhibitors identified by the in vitro analyses will be examined for growth inhibition of Giardia trophozoites, and for cytotoxicity in human cells.
Step,Parameter,Value,Description
1,Enzyme reagent,2 uL,40 nM FBPA
2,Compound,23 nL,3.68 nM-57.5 uM final concentration
3,Time,10 min,RT Incubation
4,Substrate/detection Reagent,2 uL,Substrate + enzyme coupling system + AmpLite Red kit
5,Time,20 min,RT Incubation
6,Detector,525 nm/598 nm (Fluorescence),ViewLux Fluorescence Read (Read 1)
1,Medium-binding black solid-bottom Kalypsys plates. FRD or Kalypsys dispenser, 2 uL of FBPA enzyme. Bottle kept at 4C.
2,Compound Library (10 mM ,1:5 dilution). Pin-transferred for a [final] range of 3.68 nM-57.5 uM.
4,FRD or Kalypsys dispenser, 2 uL of reaction mixture. Bottle kept at 4C and covered in foil to protect from light.
6,ViewLux Protocol 1194; Excitation filter wheel A (525/20 Pol; BODIPY TMR FP), Emission filter wheel B (598/25 S; BODIPY TMR FP S).
Keywords: Fructose-bisphosphate aldolase, FBPA , Giardia lamblia , Giardia, HTS, Inhibitors
(In general: Quantitative high-throughput screening tests each substance at several concentrations.)
Consider `Cc1cccc(Nc2cc(Cl)nc(SCC(=O)O)n2)c1C`, for which the Potency entry was “inactive”.

Turning to `Cn1cc(C2=C(c3ccc(Cl)cc3Cl)C(=O)NC2=O)c2ccccc21`, the Potency entry was “inactive”.

Regarding `O=C1CN(/N=C\c2ccc([N+](=O)[O-])o2)C(=O)N1`, the “activity, negative = inhibition” value was inactive: -24% [at 21.7 µM].

Take `O=C(O)[C@H]1[C@H]2C[C@H]3c4[nH]c5ccccc5c4CCN3C[C@@H]2CC[C@@H]1O`: the “activity, negative = inhibition” value is inactive: -27.8%.

For `Cc1ncc(C[n+]2csc(CCO)c2C)c(N)n1`, the “activity, negative = inhibition” value is inactive: -10.4% [at 21.7 µM].

As for `O=c1cc(-c2ccccc2)oc2c(O)c(O)ccc12`, the Potency was active: 7.92 µM.

`COC(=O)C1=C(C)NC(C)=C([N+](=O)[O-])C1c1ccccc1C(F)(F)F` (stereo unspecified): the Potency entry was “inactive”.

For the compound `COc1ccc2nc3c(cc2c1)Cc1ccccc1-3`, the Potency was active: 17.7 µM.

On to `CCN(CC)CCOC(=O)[C@@H](Cc1cccc2ccccc12)C[C@@H]1CCCO1`, for which the “activity, negative = inhibition” value was inactive: -25.7% [at 21.7 µM].

Consider `CCCC1CC(C(=O)NC(C(C)Cl)C2OC(SC)C(O)C(O)C2O)N(C)C1` (stereo unspecified), for which the “activity, negative = inhibition” value is inactive: -28.5%.

In the case of `CCOc1cccc(CNc2ccc(O)cc2)c1OCc1ccc(Cl)cc1Cl`, the Potency was active: 12.6 µM.

As to `CN(CC(=O)Nc1ccccc1Br)Cc1nc2ccccc2c(=O)[nH]1`, the Potency is active: 20 µM.

On to `Cc1c(N=Nc2c(O)[nH]c(=O)[nH]c2=O)c(=O)n(-c2ccccc2)n1C`, for which the Potency is active: 15.8 µM.

Regarding `Cc1c(Cl)cccc1Nc1ccccc1C(=O)O`, the Potency result was “inactive”.

Turning to `COC(=O)[C@H]1[C@H]2CC3c4[nH]c5ccccc5c4CCN3C[C@@H]2CC[C@@H]1O` (stereo partly specified), the “activity, negative = inhibition” value is inactive: -7.54%.

For the compound `N#C/C(=C\c1ccc(O)c(O)c1)C(=O)Nc1ccccc1`, the “activity, negative = inhibition” value was inactive: -25.8%.

Regarding `CCCc1ncc(C[n+]2ccccc2C)c(N)n1`, the “activity, negative = inhibition” value was inactive: -1.63% [at 21.7 µM].

For the compound `Oc1ccc(C2CNCCc3c2cc(O)c(O)c3Cl)cc1` (stereo unspecified), the “activity, negative = inhibition” value was inactive: -10.6%.

With `COc1ccc2c3c1OC1CC(O)C=CC31CCN(C)C2` (stereo unspecified), the “activity, negative = inhibition” value is inactive: -15.3%.

Take `C=C(CC)C(=O)c1ccc(OCC(=O)O)c(Cl)c1Cl`: the Potency entry was “inactive”.

For `COc1ccccc1C1CC(=O)Oc2cc3c(cc21)OCO3` (stereo unspecified), the Potency was active: 39.7 µM.

As for `Cc1cc(CC(=O)O)n(C)c1C(=O)c1ccc(Cl)cc1`, the Potency entry was “inactive”.

Turning to `O=c1cc(-c2ccc(O)c(O)c2)oc2cc(O[C@@H]3O[C@H](CO)[C@@H](O)[C@H](O)[C@H]3O)cc(O)c12`, the “activity, negative = inhibition” value was inactive: -4.4%.

With `Cc1ccccc1N=Cc1cccc(O)c1O`, the Potency is active: 5.61 µM.

With `Cc1ccccc1NNC(=O)C(=O)NNc1ccccc1C`, the Potency is active: 15.8 µM.

In the case of `CCN(CC(=O)NCc1ccc(F)cc1)C(=O)CN1CCN(c2ccc(OC)cc2)CC1`, the Potency is active: 7.94 µM.

Regarding `Cc1oc2c(c1C(=O)c1ccc(Cl)cc1)C(=O)C(=O)c1ccccc1-2`, the Potency is active: 0.889 µM.

`CC(/C=N/NC(=O)Cc1cccn1C)=C\c1ccco1`: the “activity, negative = inhibition” value is inactive: -5.08%.

Consider `CN(C)c1ccc(C(=O)Nc2nnc(C3=COCCO3)o2)cc1`, for which the Potency is active: 17.7 µM.

In the case of `COc1ccc(CN2C=C3C(=O)C(C)(OC(=O)C4CCCC4)C(=O)C=C3C=C2c2ccsc2)cc1` (stereo unspecified), the activity, negative = inhibition is inactive: -23.4% [at 12.9 µM].

On to `COc1ccc2c3c1OC1CC(O)C=C[C@@]31CCN(C)C2` (stereo partly specified), for which the “activity, negative = inhibition” value is inactive: 4.88%.

With `O=[N+]([O-])c1cccc2cn[nH]c12`, the Potency result is “inactive”.

`NC(=O)C1=C[C@H](c2csc3ccccc23)C[C@H](OCc2ccc(CO)cc2)O1`: the “activity, negative = inhibition” value was inactive: 19.6%.

On to `Oc1cc2c(cc1O)[C@H](c1ccccc1)CNCC2`, for which the “activity, negative = inhibition” value was inactive: -16.3%.

For `CNc1ccc2oc(C[C@H]3O[C@@]4(CC[C@H]3C)O[C@H]([C@H](C)C(=O)c3ccc[nH]3)[C@H](C)C[C@H]4C)nc2c1C(=O)O`, the “activity, negative = inhibition” value was inactive: -15%.

For the compound `COC(=O)c1cccc(-c2ccc(C(c3c(C)[nH][nH]c3=O)c3c(C)[nH][nH]c3=O)o2)c1`, the Potency is active: 14.1 µM.

Consider `Cc1c(O)c(=O)ccn1C`, for which the activity, negative = inhibition was inactive: -4.58% [at 12.9 µM].

Regarding `O=C1C2=C(c3ccccc31)[N+](=O)C1CCCCC1N2[O-]` (stereo unspecified), the “activity, negative = inhibition” value was inactive: -27.1%.

Take `CCCCC1=CC2=C(c3ccco3)C(=O)C(C)(OC(=O)c3ccc(OC)cc3)C(=O)C2=CN1Cc1ccccc1` (stereo unspecified): the activity, negative = inhibition is inactive: -27.8% [at 12.9 µM].

Regarding `O=c1c(O)c(-c2cc(O)c(O)c(O)c2)oc2cc(O)cc(O)c12`, the “activity, negative = inhibition” value was inactive: -16.3%.

For the compound `Cc1ccc(S(=O)(=O)NC(=O)NN2CC3CCCC3C2)cc1` (stereo unspecified), the Potency result was “inactive”.

On to `C[C@H](CCC(=O)O)C[C@H](C)C[C@H](C)C(=O)/C=C(\O)[C@H](C)C[C@H](C)C/C=C/[C@@H](C)[C@@H](O)[C@@H](C)[C@@H](O)C[C@@H]1CC[C@@](C)(C2CC[C@@](C)([C@@H](C)O)O2)O1` (stereo partly specified), for which the “activity, negative = inhibition” value is inactive: 6.4%.

For `Cc1noc(NS(=O)(=O)c2ccc(N/C=C/C(=O)c3ccccc3)cc2)c1C`, the “activity, negative = inhibition” value is inactive: 27.2%.

For `CC(=O)Oc1cccc2c1C(=O)c1c(OC(C)=O)cc(C(=O)O)cc1C2=O`, the “activity, negative = inhibition” value is inactive: -23.9%.

For the compound `COc1ccc(C(=O)NC(=S)N2CCNC(=O)C2)cc1Br`, the Potency is active: 17.7 µM.

As to `CCCc1c(OCCCCc2nn[nH]n2)ccc(C(C)=O)c1O`, the Potency entry is “inactive”.

As for `Cc1ccc(-c2n[nH]c(=S)n2/N=C/C=C/c2ccccc2[N+](=O)[O-])cc1`, the “activity, negative = inhibition” value is inactive: 24.2%.

As for `O=C(N/C(=C\c1ccco1)C(=O)N1CCCC1)c1cccs1`, the “activity, negative = inhibition” value is inactive: -12%.

On to `C=CCNC(=S)NS(=O)(=O)c1cccs1`, for which the Potency is active: 5.61 µM.

For `CC1(C)C(O)CC[C@]2(C)C1CC[C@@]1(C)C2C(=O)C=C2[C@@H]3C[C@@](C)(C(=O)O)CC[C@@]3(C)CCC21C` (stereo partly specified), the “activity, negative = inhibition” value was inactive: 17.9%.

For the compound `S=C(Nc1ccccn1)c1ccccn1`, the Potency is active: 3.15 µM.

Turning to `CCOC(=O)C1=C(C)N(c2ccccc2)C(=O)/C1=C\c1ccc(O)c(OC)c1`, the Potency is active: 17.7 µM.

For `CC1OC(OCC2OC(Oc3c(-c4ccc(O)c(O)c4)oc4cc(O)cc(O)c4c3=O)C(O)C(O)C2O)C(O)C(O)C1O` (stereo unspecified), the “activity, negative = inhibition” value was inactive: -24.4%.

As to `C#CCNC(=O)C1=C[C@@H](c2ccc(C(F)(F)F)cc2)C[C@@H](OCCCCO)O1`, the “activity, negative = inhibition” value is inactive: -21.3%.

For the compound `COC(=O)c1ccc(C(=O)O)nc1`, the Potency was active: 19.9 µM.

Take `O=[N+]([O-])c1c(Nc2ccccn2)cc(Cl)c2nonc12`: the Potency was active: 0.446 µM.

Take `CC1(OC(=O)CCc2ccccc2)C(=O)C=C2C=C(c3ccc(C#N)cc3)N(c3ccccc3)C=C2C1=O` (stereo unspecified): the activity, negative = inhibition is inactive: -5.65% [at 12.9 µM].

In the case of `c1ccc(N2CCN(Cc3nc4ccccc4[nH]3)CC2)nc1`, the “activity, negative = inhibition” value was inactive: -15.5%.

`CNCCC(Oc1ccccc1OC)c1ccccc1` (stereo unspecified): the “activity, negative = inhibition” value is inactive: 2.47%.

As for `COC1CCCCC1Nc1ccc(C)c(C)c1` (stereo unspecified), the Potency was active: 19.9 µM.

In the case of `Oc1cc2c(cc1O)[C@H]1c3ccccc3CNC1CC2` (stereo partly specified), the “activity, negative = inhibition” value was inactive: -6.96%.
